Experimental data taken from the supplement of paper PMC4604168 (melanoma cell lines).
The list shows a part of the results. Many values rest on one well or one pass, so single values are uncertain.

Experiments:
Assay in all cases: cell count relative to DMSO control; melanoma cells; higher = more viable cells
Settings in all cases: library dose: standard library concentration; 72 h
A101D = system: A101D
A2058 = system: A2058
A375 = system: A375
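Further: cells treated in 1,536-well plates, then fixed and DAPI-stained, with nuclei counted from automated high-throughput microscope images.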

SMILES	cell count (A101D)	cell count (A2058)	cell count (A375)
N.N.[Cl][Pt][Cl] [cisplatin] + O=C(O)c1ccc2c(c1)nc(Nc1cccc(Cl)c1)c1ccncc12 [CX4945] (first compound 8 µM, partner dose 2 µM)	66.2%	89.6%	73.7%
C[As](C)SC[C@H](NC(=O)CC[C@H](N)C(=O)O)C(=O)NCC(=O)O [Darinaparsin] + CC1(C)NC(=O)N(c2ccc([N+](=O)[O-])c(C(F)(F)F)c2)C1=O [nilutamide] (first compound 2 µM, partner dose 5 µM)	114%	99.9%	84.1%
N.N.[Cl][Pt][Cl] [cisplatin] + CO[C@H]1C[C@@H]2CC[C@@H](C)[C@@](O)(O2)C(=O)C(=O)N2CCCC[C@H]2C(=O)O[C@H]([C@H](C)C[C@@H]2CC[C@@H](OCCO)[C@H](OC)C2)CC(=O)[C@H](C)/C=C(\C)[C@@H](O)[C@@H](OC)C(=O)[C@H](C)C[C@H](C)/C=C/C=C/C=C/1C [everolimus] (first compound 8 µM, partner dose 0.1 µM)	81.7%	69%	96.2%
C[C@]12O[C@H](C[C@]1(O)CO)n1c3ccccc3c3c4c(c5c6ccccc6n2c5c31)CNC4=O [Lestaurtinib] + CCCS(=O)(=O)Nc1ccc(F)c(C(=O)c2c[nH]c3ncc(Cl)cc23)c1F [PLX4720] (first compound 0.02 µM, partner dose 0.4 µM)	59.8%	105%	75.8%
C[C@]12O[C@H](C[C@]1(O)CO)n1c3ccccc3c3c4c(c5c6ccccc6n2c5c31)CNC4=O [Lestaurtinib] + Cc1ccc(NC(=O)c2cccc(N(C)C)c2)cc1NC(=O)c1ccc(O)cc1 [ZM336372] (first compound 0.02 µM, partner dose 10 µM)	65.2%	92.4%	98.7%
C[C@]12O[C@H](C[C@]1(O)CO)n1c3ccccc3c3c4c(c5c6ccccc6n2c5c31)CNC4=O [Lestaurtinib] + Cc1cc(N2CCOCC2)cc2[nH]c(-c3c(NC[C@@H](O)c4cccc(Cl)c4)cc[nH]c3=O)nc12 [BMS536924] (first compound 0.02 µM, partner dose 1 µM)	76.3%	83.4%	86.6%
C[C@]12O[C@H](C[C@]1(O)CO)n1c3ccccc3c3c4c(c5c6ccccc6n2c5c31)CNC4=O [Lestaurtinib] + CN(NC(=O)CC(=O)NN(C)C(=S)c1ccccc1)C(=S)c1ccccc1 [STA4783] (first compound 0.02 µM, partner dose 0.03 µM)	64.6%	17.2%	115%
Cn1cc(C2=C(c3cn(C4CCN(Cc5ccccn5)CC4)c4ccccc34)C(=O)NC2=O)c2ccccc21 [Enzastaurin] + CS(=O)(=O)CCNCc1ccc(-c2ccc3ncnc(Nc4ccc(OCc5cccc(F)c5)c(Cl)c4)c3c2)o1 [lapatinib] (first compound 4 µM, partner dose 4 µM)	34.5%	66.9%	111%
C[As](C)SC[C@H](NC(=O)CC[C@H](N)C(=O)O)C(=O)NCC(=O)O [Darinaparsin] + Cc1ccc(NC(=O)c2cccc(N(C)C)c2)cc1NC(=O)c1ccc(O)cc1 [ZM336372] (first compound 2 µM, partner dose 10 µM)	96.2%	85.2%	83.1%
C[C@]12O[C@H](C[C@]1(O)CO)n1c3ccccc3c3c4c(c5c6ccccc6n2c5c31)CNC4=O [Lestaurtinib] + C#Cc1cccc(Nc2ncnc3cc(OCCOC)c(OCCOC)cc23)c1 [erlotinib] (first compound 0.02 µM, partner dose 4 µM)	60.6%	87.8%	105%
Cn1cc(C2=C(c3cn(C4CCN(Cc5ccccn5)CC4)c4ccccc34)C(=O)NC2=O)c2ccccc21 [Enzastaurin] + CNC(=O)c1cc(Oc2ccc(NC(=O)Nc3ccc(Cl)c(C(F)(F)F)c3)cc2)ccn1 [sorafenib] (first compound 4 µM, partner dose 2 µM)	98.1%	85%	98.5%
Cn1cc(C2=C(c3cn(C4CCN(Cc5ccccn5)CC4)c4ccccc34)C(=O)NC2=O)c2ccccc21 [Enzastaurin] + Cn1cncc1[C@@](N)(c1ccc(Cl)cc1)c1ccc2c(c1)c(-c1cccc(Cl)c1)cc(=O)n2C [tipifarnib] (first compound 4 µM, partner dose 0.05 µM)	32.4%	81.3%	104%
